{"source": "patent US20150330981A1", "about": "(published 2015)", "binders": {"B1": {"name": "synoviolin with FLAG tag (SYVN1/FLAG) (enzyme, not shown: small tags and cut ends)", "chain": "not shown"}}, "biological_target": "T1, HA PGC-1β (full-length mouse PGC-1β with HA tag) (mouse, UniProt Q8VHJ7 1-1014)", "T1 sequence (looked up)": "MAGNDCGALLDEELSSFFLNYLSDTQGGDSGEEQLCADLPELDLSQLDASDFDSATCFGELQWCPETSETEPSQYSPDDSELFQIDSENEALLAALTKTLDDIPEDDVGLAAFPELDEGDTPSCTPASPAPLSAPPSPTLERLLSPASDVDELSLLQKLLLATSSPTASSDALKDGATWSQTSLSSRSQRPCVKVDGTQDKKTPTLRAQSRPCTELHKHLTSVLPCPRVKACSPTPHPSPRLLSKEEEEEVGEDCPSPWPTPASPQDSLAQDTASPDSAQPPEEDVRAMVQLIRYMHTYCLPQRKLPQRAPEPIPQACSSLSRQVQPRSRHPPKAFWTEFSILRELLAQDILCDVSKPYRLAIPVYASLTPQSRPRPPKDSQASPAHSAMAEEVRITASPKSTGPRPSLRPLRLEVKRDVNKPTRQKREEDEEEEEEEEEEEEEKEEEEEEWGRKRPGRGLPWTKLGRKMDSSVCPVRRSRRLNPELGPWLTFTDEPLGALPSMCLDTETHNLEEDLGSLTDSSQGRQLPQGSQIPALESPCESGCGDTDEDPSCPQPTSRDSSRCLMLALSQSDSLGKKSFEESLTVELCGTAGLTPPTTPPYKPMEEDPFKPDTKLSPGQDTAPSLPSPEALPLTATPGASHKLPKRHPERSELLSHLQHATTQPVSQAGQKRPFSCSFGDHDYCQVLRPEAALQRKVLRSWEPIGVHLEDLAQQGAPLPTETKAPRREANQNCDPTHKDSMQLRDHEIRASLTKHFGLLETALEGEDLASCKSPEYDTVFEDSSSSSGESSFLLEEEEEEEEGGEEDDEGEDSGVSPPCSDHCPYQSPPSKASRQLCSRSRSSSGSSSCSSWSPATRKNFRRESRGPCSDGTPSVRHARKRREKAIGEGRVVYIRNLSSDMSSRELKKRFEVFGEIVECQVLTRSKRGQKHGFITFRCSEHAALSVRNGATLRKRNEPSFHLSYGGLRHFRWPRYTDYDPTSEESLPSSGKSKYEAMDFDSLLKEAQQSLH", "test": "cell-based or functional assay"}
{"binder": "B1", "values": [{"measurement": "half-life of PGC-1β in cells (cycloheximide chase, Western blot)", "result": 1.6, "unit": "h"}]}
